Positions count from the first letter of the chain named.
B1: MMAE-IgG1 17 (conjugate)
heavy: QVQLVESGGGLVKPGGSLRLSCAASGFTFSDYYMSWIRQAPGKGLEWVSYISSSGSTIYYADSVKGRFTISRDNAKNSLYLQMNSLRAEDTAVYYCAREVYYYDSSGYYTYYFDYWGQGTLVTVSS[human IgG1 constant region not spelt out]
light: DIQMTQSPSSLSASVGDRVTITCRASQSISSYLNWYQQKPGKAPKLLIYAASSLQSGVPSRFSGSGSGTDFTLTISSLQPEDAATYYCQQYDTFPLTFGGGTKVEIKRTVAAPSVFIFPPSDEQLKSGTASVVCLLNNFYPREAKVQWKVDNALQSGNSQESVTEQDSKDSTYSLSSTLTLSKADYEKHKVYACEVTHQGLSSPVTKSFNRGEC
B2: MMAE-IgG1 3G12 (conjugate)
heavy: B1 heavy
light: B1 light with A83V, T85V, D92Y, F94S, P95R, L96I, G100Q, V104L

Assays:
[1] = tested on: 293T-ENPP1 cells; assay: ADC cytotoxicity (Cell Titer-Glo cell viability); assay type: cell-based; settings: 4 days
Method: (§1) The cell-killing activity of anti-ENPP1 CAR^+ T cells and BiTEs were measured by LDH-Glo cytotoxicity assay kit (Promega, Madison, WI, USA). For the cell-killing activity of anti-ENPP1 CAR^+ T cells, control T cells or CAR^+ T cells as effector cells were incubated with 293T, 293T-ENPP1, and HepG2 target cells (5×10^3 cells/well in 96-well plate) separately at indicated E:T ratio for 24 hours at 37° C. For the cell-killing activity of BiTEs, target cells (1×10^4 cells/well) were mixed with serially diluted BiTEs in 50 μL of growth medium, and […] activated T cells were added at the ET ratio 10:1 and cultured for 24 hours at 37° C. in 5% CO2 humidified atmosphere. Controls for the calculation of percentage cytotoxicity were performed according to the manufacturer's instructions. The calculation of relative % cytotoxicity as follows: relative % cytotoxicity=100×(Experimental LDH release-medium background)/(target and effector maximum LDH release control-medium background). For the cell-killing activity of ADC, 293T, 293T-ENPP1, and HepG2 cells were seeded at 2000 cells/well in 96-well white plate and incubated overnight at 37° C. in 5% CO2. Serial diluted anti-ENPP1 ADC was added and cultured for 4 days at 37° C. in 5% CO2. Images were captured under a 4×objective microscope (Olympus microscope, Westborough, MA, USA). Controls with cells only were used for calculation of percent relative cell viability. At the end of the time point, the Cell Titer-Glo Luminescent cell viability assay kit (Promega) was used to measure the cell viability. The calculation of % Relative cell viability was as follows: % Relative cell viability=100×(Experimental luminescence values-medium Background)/(Control luminescence values-medium Background). For ADCC, the ADCC reporter bioassay complete kit (Promega) was used, the experiment was performed following the manufacturer's instructions. The 293T-ENPP1 cell line was used as target cell.

[2] = tested on: HepG2 cells; assay: ADC cytotoxicity (Cell Titer-Glo cell viability); assay type: cell-based; settings: 200 nM
Method: as §1

Molecule	cell killing effects [1]	killing effects of free MMAE and ADC compared [2]
B1	specific cell killing effects	comparable
B2	specific cell killing effects	comparable
